# Assay results: the supplement of paper PMC11417369
# ± gives the standard deviation of the averaged measurements. Some of the results follow.
# Test system: PfAP2-I AP2 domain 3 (GST-tagged)
# Experiment: gcPBM binding intensity (ln(normalized median fluorescence intensity)); higher = stronger DNA binding
# Procedure, shortened: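 Binding of GST-tagged P. falciparum DNA-binding domains, expressed in E. coli and used at about 25 μg on average, was carried out for 1 h in 1× PBS containing 1% milk, 0.2 mg/ml BSA, 0.5% salmon testes DNA and 0.03% Triton X-100. The target was an Agilent 4 × 180k array of primer-extended double-stranded 36-bp intergenic genomic probes plus negative controls, read with Alexa488 anti-GST antibody at 488 nm. Binding intensity is the highest Masliner-normalised natural-log median intensity across replicate spots of either probe orientation.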
row,Sequence,gcPBM binding intensity (ln)
1,TGTAAGAAATTGAGCGCACACATACATCTGTGGGAT [CACACA_site4945],8.31 ± 0.61
2,TTTTGTTTATGTGTGCATTATATTATATTTTTTATT [TGCATGCA_negctrl_site146],10.9 ± 0.45
3,TATAAATAAATATACACACACACATATAAATATGTA [CACACA_site6504],7.61 ± 0.17
4,AATAAATATAGGTACACACACAAATATGTACATATC [CACACA_site6976],8 ± 0.4
5,AAAGAAAGGAATACGACACACAAAAAAAAAATATAT [CACACA_site1934],7.83 ± 0.76
6,TAGTTGCACATGTATACACACAAAAAATATTTTATG [CACACA_site475],8.64 ± 0.16
7,AAGTGGTTATAATCAACACACGTGGAATGTACTTTA [CACACA_site3700],7.85 ± 0.65
8,AAGAAACCATAATATGCATGCACATATTAATAAATA [TGCATGCA_site693],8.05 ± 0.69
9,TATAATATTATATATAAACACACATACACATGTAAA [CACACA_site8631],7.79 ± 0.49
10,AGAAAAGTTTAATACAGTACATAAACAAAGTATAGG [XGTACX_site2386],7.87 ± 0.6
11,GTATATTTATAGCCTTTATTATATTTAATATTATTA [TGCATGCA_negctrl_site26],7.74 ± 0.54
12,GTTATATTTTTTTATACACACTGGAATATATAAATA [CACACA_site4282],7.89 ± 0.38
13,TATTTATTGTGATACTACTATTATTTTATGATTAAA [CACACA_negctrl_site284],7.55 ± 0.35
14,ACCCAATTTTAAAATGAACACACATGTTTTTCTTAC [CACACA_site8246],8.13 ± 0.49
15,ATAATTATATATTTATGTACGCATAAATATTTATAT [XGTACX_site5765],7.83 ± 0.48
16,AACTATATCATTTATTTTATTTTTTAAATACATTTA [CACACA_negctrl_site183],7.59 ± 0.72
17,TATATATAACTTTATTGTACAAAATATTATGTATTC [XGTACX_site981],7.67 ± 0.34
18,TTATATTATTTTTAATGTACTTTTTATGAATACAAA [XGTACX_site689],7.78 ± 0.23
19,TATACAACTTTATGAAGTACAAAAAGTTCTATATAT [XGTACX_site3866],7.52 ± 0.44
20,AATATATGTATGTACGCATGTATGTATCTATGTATT [TGCATGCA_site389],8.02 ± 0.51
21,TTATAATTATATACATGTACATATAATACATATATA [XGTACX_site8904],7.71 ± 0.4
22,TGTAATAAATAGTACACACACACATATTTATATATC [CACACA_site6770],8.19 ± 0.2

row,Sequence,gcPBM binding intensity (ln)
1,ATATGGGTAATGAATTGTACTCTTTCTTGTTGTTCT [XGTACX_site4487],7.83 ± 0.61
2,GTATAATTTTCGTATTCACACAAGAATATACTACAT [CACACA_site4877],7.88 ± 0.52
3,AAAAACAGAAATGTAACACACAAAAATTCTATTTAT [CACACA_site4026],7.58 ± 0.61
4,TTTTGTTATAAATAATGTACATATTTATTTAAAATT [XGTACX_site6610],7.69 ± 0.38
5,TCTATAAAGGAATATACACACATATATAAATATGTA [CACACA_site6332],7.37 ± 0.37
6,AACCTTTATATGTAAAGTACAAAAAAGAGTAAAAAA [XGTACX_site5506],7.79 ± 0.71
7,TATAAAAATGTGCACACACACACATATTTATATTTA [CACACA_site6826],9.365 ± 0.007
8,TATATTATATACCATTGTACATATAATATAGGTTCT [XGTACX_site7047],7.58 ± 0.4
9,AAAATCATTCCAAAGACATGCATTTTGCAAATAAAA [TGCATGCA_site461],7.71 ± 0.69
10,ATTAATTATAATGTATGTACATAACTTTTTTATATT [XGTACX_site5784],7.76 ± 0.4
11,AACATACATAGACACACACACACACGCACACGCACA [CACACA_site6373],8.44 ± 0.29
12,GAAAATACGTTTAATCGTACATATATATAATATATA [XGTACX_site4243],7.68 ± 0.34
13,TATTTACCCTCATGTTGTACTTTTCATTCATTTTAT [XGTACX_site7794],8.16 ± 0.61
14,ACAAGTTTTTTTTTATCACACACAAAAAAAAAAATA [CACACA_site8377],7.9 ± 0.44
15,TTTATTATTTTTAGGAGTACACAAAATAAAACAAAT [XGTACX_site8841],8.23 ± 0.24
16,AAATGTTATATATAATGTACTTGTAAGAACGTTCCT [XGTACX_site2840],7.58 ± 0.69
17,AATAATGTATGAAATAAACACACAAGTAAGTACATA [CACACA_site8776],7.87 ± 0.38
18,ATAATTTTAAATAAATGTACATATAGATGTGTGTAA [XGTACX_site3958],8.2 ± 0.44
19,AAAATTATATATTATAGTACATAAAATATTGATAAA [XGTACX_site8988],7.7 ± 0.32
20,ATGAGAAAATATATTATTTTATATGAACAAGTTTAT [XGTACX_negctrl_site372],7.38 ± 0.69
21,TATAACATTGTATGAATGCACTTTTATCTATTTTAA [GTGCAC_site9903],9.57 ± 0.33
22,AAGATACACTTAATCGCACACGAAATTATATATTTA [CACACA_site3063],7.89 ± 0.4

row,Sequence,gcPBM binding intensity (ln)
1,TTTTTTTTTTATGTTATTAAAAAAAAAAAAAATTAA [CACACA_negctrl_site222],7.57 ± 0.38
2,ATATATAATCATATGTGTACATATATATTAATTTAA [XGTACX_site2839],7.79 ± 0.32
3,AATTCAAAATAAAAATGTACATATATCAGAATATGG [XGTACX_site42],7.87 ± 0.52
4,AAAAAAAAAAAAAAAACACACATTTAATGAACTTAT [CACACA_site1276],8.71 ± 0.47
5,ACTTGTAAGAAACACACACACACACCGATATATATA [CACACA_site4594],8.28 ± 0.68
6,AAAAATAAGAAAAAGTGTACTTTATTATGTATATAT [XGTACX_site2305],8.12 ± 0.2
7,ATTATTTTTTTTCTTATACACACCATGCATCAAACT [CACACA_site2128],8.47 ± 0.66
8,CCAACTATATTATGAAGTACATATATATTATATATA [XGTACX_site5767],7.8 ± 0.16
9,TATACATATTTTATAGCACACAAATAATAATATGTA [CACACA_site8129],8.9 ± 0.2
10,AAACCTACATAACATACACACGCATATATATAATTT [CACACA_site8923],8 ± 0.6
11,TTTTTTTTTTTTTATTGTACATGCAAAAAATTCCAC [XGTACX_site2371],8.07 ± 0.44
12,ATATATATATATTGTAGTACTTATTAAATTATTTAT [XGTACX_site6235],8.985 ± 0.078
13,TCTGTATTTCCTTATGCATGCATTAGCAAGATAATA [TGCATGCA_site483],8.39 ± 0.57
14,GTAAGTATATATAAATGTACTTATGAGGTCAAATTA [XGTACX_site3392],7.68 ± 0.57
15,TTGGGTATTTTGTGCGCACACACATGCAAAAAGAAA [CACACA_site8299],10.5 ± 0.18
16,AGAGATACATAAAAAAGTACATATAAAATTTAGGAA [XGTACX_site7201],7.96 ± 0.19
17,TAAGTATACTCATACACACACACACTAGAAAAAAAA [CACACA_site4397],7.93 ± 0.54
18,TATTTATTTATATACACACACTTGTATAAAAAATGT [CACACA_site7048],7.95 ± 0.5
19,TACAAATTAATATGTACACACAAATATATATATATA [CACACA_site1977],9.22 ± 0.11
20,ATAATATGAAACTAAGGTACACATATATTAACAGAG [XGTACX_site3842],8.29 ± 0.23
21,TGCGACCATAATAAAGCACACAATGAAAAATATATA [CACACA_site256],9.4 ± 0.39
22,TGTGCTCAAAATTATGCACACACCTAAAATTAATTT [CACACA_site8950],10.3 ± 0.6

row,Sequence,gcPBM binding intensity (ln)
1,CCAATAATATATAGAAGTACAGAAAAAAAAAAAAAA [XGTACX_site2049],8.07 ± 0.46
2,AAGAAAATTAAATTAACACACATAAATATGTAAATA [CACACA_site6882],7.42 ± 0.36
3,CCCTCTTCTCTCATATCACACATGTCATCCTTATCC [CACACA_site5078],8.44 ± 0.35
4,TATAAATATTTATAAACACACAAATATATATATTTA [CACACA_site27],7.71 ± 0.25
5,ATCAAAATGTTAAAGATACACACCTAACAAACACAA [CACACA_site955],7.96 ± 0.19
6,GCACGCTGTATGAATGCACACATTCATAGAATTGCT [CACACA_site8852],9.22 ± 0.15
7,TTATATATATAGAAGTGTACAAAATTTCCTAGACCT [XGTACX_site3900],7.92 ± 0.61
8,TATCGACATTTCATTTGTACATATATACATATATTT [XGTACX_site3346],7.71 ± 0.6
9,AAATAGTATATAATATGTACATACATAAAAATGTAT [XGTACX_site3524],7.63 ± 0.54
10,ACCTATGTATATTATACACACTCCAAACTATTATTT [CACACA_site1817],8.12 ± 0.58
11,TTTTGTTTGTTCGTGACTACATTATGTTGTAAATAC [CACACA_negctrl_site604],7.87 ± 0.56
12,AAAGGTAAGCAGAATAGTACAGAAGAAAAAATATTT [XGTACX_site2941],8.09 ± 0.81
13,TATCCTATAAATAATACATGCATATATATATATATT [TGCATGCA_site638],8.07 ± 0.37
14,ATCAAAAAAAAAAAATTTTTTTTTTTGTTTGTTTCC [CACACA_negctrl_site1042],7.34 ± 0.91
15,CAACATTTGAGACACACACACATACAAACAAACAAA [CACACA_site7538],8.14 ± 0.33
16,ATTACAAAAAAAAAAAAAAAAAAAAAAAAAAAAAAA [CACACA_negctrl_site448],8.35 ± 1.1
17,TATACATAGATATATACACACATATATTTATATACA [CACACA_site6328],7.54 ± 0.25
18,ATATGTATATATATTTGTACGTAAAATGAAATCTAA [XGTACX_site213],8.28 ± 0.44
19,ATTTCACAGAAACACACACACAATATATTTCCTTTT [CACACA_site3904],7.71 ± 0.61
20,GAAAAATGAAGAGAACAAAATTTTATGATATATATA [GTGCAC_negctrl_site231],8.13 ± 0.6
21,CCTTGAACCCCACTAACACACACACCCACGCTCAGA [CACACA_site8976],8.14 ± 0.59
22,TTTCATAAATAAATATGTACATAATTAATAATAAAT [XGTACX_site5882],7.78 ± 0.27
